The other results are listed elsewhere or left out.
Each sequence was assayed against T1, OsWOX13 (Oryza sativa, UniProt Q5QMM3 1-267) (assay: protein-binding microarray (RPBM); PBS, 2% BSA, 51.3 ng/ul salmon testes DNA, 50 uM zinc acetate, 200 nM TF, 25 C, 1 h; high values mean tight binding). Conditions: protein: recombinant; tags: N-terminal polyhistidine and DsRed monomer fusion (pET32a); label: CyDye5-dUTP incorporated in the synthesized complementary strand; 3' TTTTT single-stranded linker to array surface; dsDNA, one strand shown.
T1 sequence: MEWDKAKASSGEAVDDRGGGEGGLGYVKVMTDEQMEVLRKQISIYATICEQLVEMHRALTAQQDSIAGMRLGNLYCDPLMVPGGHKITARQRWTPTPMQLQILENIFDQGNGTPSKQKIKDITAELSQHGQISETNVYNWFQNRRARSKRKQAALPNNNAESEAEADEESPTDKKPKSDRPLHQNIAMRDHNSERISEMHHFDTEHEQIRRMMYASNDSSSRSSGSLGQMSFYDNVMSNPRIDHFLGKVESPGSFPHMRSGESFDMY
How it was run: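 Using Ni–NTA, transcription factors fused N-terminally to polyhistidine and DsRed were purified after expression in E. coli BL21-CodonPlus. These were incubated at 200 nM with a blocked, double-stranded custom Agilent array for 1 h at 25 °C in a buffer containing 50 µM zinc acetate, and the array was washed. The binding signal is per-feature fluorescence intensity (arbitrary units) on an Axon 4000B scanner.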
For “GCAAATTAATTAACTAATTAATTAAACACCCAACTAATCTCGGAGTCACCTAGTGCAG”, the binding signal was 63700 fluorescence intensity (a.u.). For “AGCCTTTGTTTATGTAATCAATTCTAGTGTTACTAGTAGACGGAGTCACCTAGTGCAG”, the binding signal was 5730 fluorescence intensity (a.u.). In the case of “ATGATTAGGTAGGCATCAGTGATTCAGTGGTAATTGCGCGCGGAGTCACCTAGTGCAG”, the binding signal is reported as 8380 fluorescence intensity (a.u.). In the case of “ACAACAATTTAATTTCTCATCTGCTATCGTACACCATAGCCGGAGTCACCTAGTGCAG”, the binding signal is reported as 8700 fluorescence intensity (a.u.). In the case of “TAAGTGATTTATACTGTCTCGGCATGGCGACCGATCTATCCGGAGTCACCTAGTGCAG”, the binding signal is reported as 12400 fluorescence intensity (a.u.). “GAGTAATTTTCTACTGGTTTTAATAGTTGAAATAGCTGTTCGGAGTCACCTAGTGCAG” was tested, and the binding signal was 3780 fluorescence intensity (a.u.). For “TGATGATTAGATAAGTTCATCGAATAAGATAAATAGTCAACGGAGTCACCTAGTGCAG”, the binding signal was 14700 fluorescence intensity (a.u.). In the case of “ATAAATTAGGCGATTAGCTCTCCAATCCGGGCACAGAACCCGGAGTCACCTAGTGCAG”, the binding signal is reported as 16300 fluorescence intensity (a.u.). With “GGAAGCCAATCAAAGCCAGCTAGGAAGTAGGACCTCTGCCCGGAGTCACCTAGTGCAG” the binding signal was 6050 fluorescence intensity (a.u.). In the case of “TCTTTATTTTAACAGGGCAATGACGGAAAACGTGACGGCGCGGAGTCACCTAGTGCAG”, the binding signal is reported as 3730 fluorescence intensity (a.u.). With “AGTTTAATATGTTAATGAAGAATCTATGCACAAGGCAGCACGGAGTCACCTAGTGCAG” the binding signal was 4380 fluorescence intensity (a.u.). In the case of “GCATGGACTAATATTAATTTCCTTCATTGGCATGAATGAACGGAGTCACCTAGTGCAG”, the binding signal is reported as 3710 fluorescence intensity (a.u.). With “CATGATTGAAACATTACTTGATGGCTTCTGGTCCTACCCACGGAGTCACCTAGTGCAG” the binding signal was 53900 fluorescence intensity (a.u.). For “TGATACTATCAATCACTATAGCTTATCCATAGTACTATATCGGAGTCACCTAGTGCAG”, the binding signal was 8320 fluorescence intensity (a.u.). “GGATCTCTTGACAGGTTCATCTTCTCTCCTGACAAGAGTCCGGAGTCACCTAGTGCAG” was tested, and the binding signal was 3430 fluorescence intensity (a.u.). For “ATAAATTTAATTTTCTAATTCATACTAGTAATTAAAACTTCGGAGTCACCTAGTGCAG”, the binding signal was 11800 fluorescence intensity (a.u.). “TAAATCTAATTGTTATAGAGCCTTTATTTTCACACAAGCTCGGAGTCACCTAGTGCAG” was tested, and the binding signal was 6340 fluorescence intensity (a.u.). With “TTGATTTCAAATTTCACAATATGAAACGAACTCCTATGGACGGAGTCACCTAGTGCAG” the binding signal was 5020 fluorescence intensity (a.u.). With “GGACCATCATCAGCCATCTTGATTTGTTGCCACCAGCCTGCGGAGTCACCTAGTGCAG” the binding signal was 7010 fluorescence intensity (a.u.). “ATCAAAATTTAAAATTTAAAATTTAGCATTGCTTTATATGCGGAGTCACCTAGTGCAG” was tested, and the binding signal was 13500 fluorescence intensity (a.u.). For “AACAAATTGGCTAGCTAGAATTGAAGCAGGTACTCCTAATCGGAGTCACCTAGTGCAG”, the binding signal was 13300 fluorescence intensity (a.u.). For “ATGCAAATTATTACGCTCTTTATCTATTTCTAATACATTCCGGAGTCACCTAGTGCAG”, the binding signal was 4500 fluorescence intensity (a.u.). In the case of “TCCTGATTATATATATTGATGGATGGCAAGAGAAGAGACGCGGAGTCACCTAGTGCAG”, the binding signal is reported as 48400 fluorescence intensity (a.u.). “AAATTTAATTAATTATGTGTTAAACACTGCTTCGTTTTATCGGAGTCACCTAGTGCAG” was tested, and the binding signal was 27300 fluorescence intensity (a.u.). “ACATTATCCAATTAAATCCATGGCTTGATACCTTCTTCTGCGGAGTCACCTAGTGCAG” was tested, and the binding signal was 3610 fluorescence intensity (a.u.). In the case of “GGATGATTTTCCGTGTTTTAATTAAGAAAACCTGATACTACGGAGTCACCTAGTGCAG”, the binding signal is reported as 14200 fluorescence intensity (a.u.). “AGAATTAATTGATGGTAATTAAGTCGGCAGCATGTATGACCGGAGTCACCTAGTGCAG” was tested, and the binding signal was 42800 fluorescence intensity (a.u.). In the case of “ATTCATATTCCACTAATTGAATCACGATTTTAAAATTTCCCGGAGTCACCTAGTGCAG”, the binding signal is reported as 11600 fluorescence intensity (a.u.). With “TTAATTACCTATCTTAGAGTGCCATCTAGTTCCTCCTACCCGGAGTCACCTAGTGCAG” the binding signal was 6630 fluorescence intensity (a.u.). In the case of “TTAAATTTAATGTTAGTTCAAACATCACTATACATACTTACGGAGTCACCTAGTGCAG”, the binding signal is reported as 4830 fluorescence intensity (a.u.). For “GCCTGCAATTTGCCGGTGTCAATTTAGCTGTCACTCTCCACGGAGTCACCTAGTGCAG”, the binding signal was 4060 fluorescence intensity (a.u.). In the case of “GTGGAGTGATATATTACATATTAATTTATCTTCCTCTAATCGGAGTCACCTAGTGCAG”, the binding signal is reported as 7040 fluorescence intensity (a.u.). With “ACACAATCACATTCACATTTGGCATCCTCAAATTCCACCCCGGAGTCACCTAGTGCAG” the binding signal was 5670 fluorescence intensity (a.u.). In the case of “CTGCAATTGACCGATTGCCATTTCACAACGGTAGCGACAACGGAGTCACCTAGTGCAG”, the binding signal is reported as 11500 fluorescence intensity (a.u.). “TATCAATTAGCTGAATGTTTCAGGTTTCAGCTGCAGAGGCCGGAGTCACCTAGTGCAG” was tested, and the binding signal was 28400 fluorescence intensity (a.u.). With “GTATAATTGGCATGTGGGCCTACGATTTCTATTATTTCCACGGAGTCACCTAGTGCAG” the binding signal was 31400 fluorescence intensity (a.u.). With “ATGATTCAAATTTACTTTGTAAATCTACTATTGTACTACCCGGAGTCACCTAGTGCAG” the binding signal was 5710 fluorescence intensity (a.u.). For “TTGATTTAGGAAAGATGATTAGGATTTAATTAATGAGAGTCGGAGTCACCTAGTGCAG”, the binding signal was 25900 fluorescence intensity (a.u.). “CATAATTAAAATACTTAAAATATGTGCTCGTAATTATTTACGGAGTCACCTAGTGCAG” was tested, and the binding signal was 6000 fluorescence intensity (a.u.). With “TTGTATGAAATATGTAATTTGTATATTTGCAAATGACATTCGGAGTCACCTAGTGCAG” the binding signal was 4850 fluorescence intensity (a.u.). In the case of “CAGATGTAATCAAAACTAGGATGATGAACCAGGGCAAGGACGGAGTCACCTAGTGCAG”, the binding signal is reported as 4430 fluorescence intensity (a.u.). In the case of “ATAATAATTTTAAAATAAGATGATGAGTCAAACGTTGTATCGGAGTCACCTAGTGCAG”, the binding signal is reported as 10600 fluorescence intensity (a.u.).

From PMC7819943, “Rice protein-binding microarrays: a tool to detect cis-acting elements near promoter regions in rice”
